# The full ranking holds about 2,900 compounds; the median of “NF-kB SEAP reporter activity, fold change vs agonist alone” is about 0.99, and the highest 2% start at about 2.6. This is one part of the list.
# Legend:
# RAW-Dual [1] = assay: NF-kB SEAP reporter activity, fold change vs agonist alone; cytotoxicity flag (confluency mask): not cytotoxic; higher = enhanced NF-kB activity
# Procedure, shortened: (§1)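 Cytotoxic wells were those whose IncuCyte confluency was below 70% of agonist controls in both mask sets. The cells were RAW-Dual macrophages at 50,000 cells/well in DMEM on 384-well plates, dosed with 50 nL of library stock by pin tool, stimulated with a PRR agonist 1 h later, and kept at 37 °C, 5% CO2 for 20 hours. IRF and NF-κB reporter activity, as fold change over agonist-alone wells, came from supernatant read by QuantiLuc luminescence and QuantiBlue absorbance, respectively.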
# RAW-Dual [2] = assay: NF-kB SEAP reporter activity, fold change vs agonist alone; higher = enhanced NF-kB activity; conditions: cytotoxicity flag (confluency mask): not cytotoxic
# Procedure, shortened: as §1
# [3] = agonist: ODN 1826 (TLR9) 0.5 ug/mL
# [4] = agonist: Pam2CSK4 (TLR2/6) 0.1 ug/mL
# [5] = agonist: Pam3CSK4 (TLR2/1) 0.1 ug/mL
# [6] = library stock concentration (final ~1000-fold dilution): 10 mM, agonist: Imiquimod (TLR7) […]
# [7] = library stock concentration (final ~1000-fold dilution): 10 mM, agonist: MPLA (TLR4) […]
smiles,measurement,setting,value
O=C(CCCS)NC1CCN(C(=O)COc2ccc(Cl)cc2Cl)CC1 (library stock concentration (final ~1000-fold dilution): 10 mM),NF-kB SEAP reporter activity,RAW-Dual [1]; agonist: LPS (TLR4) 0.1 ug/mL,1.87
same,NF-kB SEAP reporter activity,RAW-Dual [1]; [3],1.1
same,NF-kB SEAP reporter activity,RAW-Dual [1]; [4],0.978
same,NF-kB SEAP reporter activity,RAW-Dual [1]; [5],1.35
CCOC(=O)C(CCc1ccccc1)NC(C)C(=O)N1C(C(=O)O)CC2CCCCC21 (stereo not drawn) (library stock concentration (final ~1000-fold dilution): 10 mM),NF-kB SEAP reporter activity,RAW-Dual [1]; agonist: LPS (TLR4) 0.1 ug/mL,1.25
same,NF-kB SEAP reporter activity,RAW-Dual [1]; [3],1
same,NF-kB SEAP reporter activity,RAW-Dual [1]; [4],1.01
same,NF-kB SEAP reporter activity,RAW-Dual [1]; [5],0.933
CCOC(=O)C(CCc1ccccc1)NC(C)C(=O)N1C(C(=O)O)CC2CCCCC21 (stereo not drawn),NF-kB SEAP reporter activity,RAW-Dual [2]; [6],0.911
same,NF-kB SEAP reporter activity,RAW-Dual [2]; [7],1.04
CC(C)CC(CC(=O)NO)C(=O)NC(Cc1ccc2ccccc2c1)C(=O)NC(C)C(=O)NCCN (stereo not drawn),NF-kB SEAP reporter activity,RAW-Dual [2]; [6],1.09
same,NF-kB SEAP reporter activity,RAW-Dual [2]; [7],1.34
CC(C)CC(CC(=O)NO)C(=O)NC(Cc1ccc2ccccc2c1)C(=O)NC(C)C(=O)NCCN (stereo not drawn) (library stock concentration (final ~1000-fold dilution): 10 mM),NF-kB SEAP reporter activity,RAW-Dual [1]; agonist: LPS (TLR4) 0.1 ug/mL,1.55
same,NF-kB SEAP reporter activity,RAW-Dual [1]; [3],1.11
same,NF-kB SEAP reporter activity,RAW-Dual [1]; [4],1.02
same,NF-kB SEAP reporter activity,RAW-Dual [1]; [5],1.1
O=P(O)(O)OC(CO)CO (library stock concentration (final ~1000-fold dilution): 10 mM water),NF-kB SEAP reporter activity,RAW-Dual [1]; agonist: LPS (TLR4) 0.1 ug/mL,1.11
same,NF-kB SEAP reporter activity,RAW-Dual [1]; [3],1.12
same,NF-kB SEAP reporter activity,RAW-Dual [1]; [4],1.2
same,NF-kB SEAP reporter activity,RAW-Dual [1]; [5],1.13
O=P(O)(O)OC(CO)CO,NF-kB SEAP reporter activity,"RAW-Dual [2]; library stock concentration (final ~1000-fold dilution): 10 mM water, agonist: Imiquimod (TLR7) […]",0.936
same,NF-kB SEAP reporter activity,"RAW-Dual [2]; library stock concentration (final ~1000-fold dilution): 10 mM water, agonist: MPLA (TLR4) […]",1.02
COc1cc(N2CCC(N3CCN(C)CC3)CC2)ccc1Nc1ncc(Cl)c(Nc2ccccc2P(C)(C)=O)n1 (library stock concentration (final ~1000-fold dilution): 2 mM),NF-kB SEAP reporter activity,RAW-Dual [1]; agonist: LPS (TLR4) 0.1 ug/mL,2.66
same,NF-kB SEAP reporter activity,RAW-Dual [1]; [3],1.27
same,NF-kB SEAP reporter activity,RAW-Dual [1]; [4],1.28
same,NF-kB SEAP reporter activity,RAW-Dual [1]; [5],1.66
COc1cc(N2CCC(N3CCN(C)CC3)CC2)ccc1Nc1ncc(Cl)c(Nc2ccccc2P(C)(C)=O)n1,NF-kB SEAP reporter activity,"RAW-Dual [2]; library stock concentration (final ~1000-fold dilution): 2 mM, agonist: Imiquimod (TLR7) […]",1.15
same,NF-kB SEAP reporter activity,"RAW-Dual [2]; library stock concentration (final ~1000-fold dilution): 2 mM, agonist: MPLA (TLR4) […]",1.26
O=C1NCCCc2c1oc1ccc(O)cc21,NF-kB SEAP reporter activity,RAW-Dual [2]; [6],0.984
same,NF-kB SEAP reporter activity,RAW-Dual [2]; [7],0.876
O=C1NCCCc2c1oc1ccc(O)cc21 (library stock concentration (final ~1000-fold dilution): 10 mM),NF-kB SEAP reporter activity,RAW-Dual [1]; agonist: LPS (TLR4) 0.1 ug/mL,0.884
same,NF-kB SEAP reporter activity,RAW-Dual [1]; [3],0.617
same,NF-kB SEAP reporter activity,RAW-Dual [1]; [4],0.904
same,NF-kB SEAP reporter activity,RAW-Dual [1]; [5],1.02
COc1ccccc1OCC(O)COC(N)=O (stereo not drawn) (library stock concentration (final ~1000-fold dilution): 10 mM),NF-kB SEAP reporter activity,RAW-Dual [1]; agonist: LPS (TLR4) 0.1 ug/mL,1.02
same,NF-kB SEAP reporter activity,RAW-Dual [1]; [3],0.946
same,NF-kB SEAP reporter activity,RAW-Dual [1]; [4],1.04
same,NF-kB SEAP reporter activity,RAW-Dual [1]; [5],1.11
COc1ccccc1OCC(O)COC(N)=O (stereo not drawn),NF-kB SEAP reporter activity,RAW-Dual [2]; [6],0.897
same,NF-kB SEAP reporter activity,RAW-Dual [2]; [7],0.786
NC(=O)C(=Cn1cnc(-c2cc(C(F)(F)F)cc(C(F)(F)F)c2)n1)c1cncnc1 (library stock concentration (final ~1000-fold dilution): 10 mM),NF-kB SEAP reporter activity,RAW-Dual [1]; agonist: LPS (TLR4) 0.1 ug/mL,0.331
same,NF-kB SEAP reporter activity,RAW-Dual [1]; [3],0.334
same,NF-kB SEAP reporter activity,RAW-Dual [1]; [4],0.13
same,NF-kB SEAP reporter activity,RAW-Dual [1]; [5],0.148
NC(=O)C(=Cn1cnc(-c2cc(C(F)(F)F)cc(C(F)(F)F)c2)n1)c1cncnc1,NF-kB SEAP reporter activity,RAW-Dual [2]; [6],0.765
same,NF-kB SEAP reporter activity,RAW-Dual [2]; [7],0.772
COc1ccc(CCc2nc3cc(-c4c(C)noc4C)ccc3n2CC(C)N2CCOCC2)cc1Cl (stereo not drawn),NF-kB SEAP reporter activity,RAW-Dual [2]; [7],2.65
COc1ccc(CCc2nc3cc(-c4c(C)noc4C)ccc3n2CC(C)N2CCOCC2)cc1Cl (stereo not drawn) (library stock concentration (final ~1000-fold dilution): 10 mM),NF-kB SEAP reporter activity,RAW-Dual [1]; agonist: LPS (TLR4) 0.1 ug/mL,4.47

# Reference: the supplement of paper PMC10037445
